# Data from PubChem BioAssay AID1745853 (National Center for Advancing Translational Sciences (NCATS), 2022).
# This is one part of the list. Shown are side measurements of this screen, not its main read-out; they come without a call.
# Legend:
# Assay in all cases: Primary Screen for Target Class Profiling of Small Molecule Inhibitors of Methyltransferases
# [1] = biological target: Glycine N-methyltransferase (Homo sapiens) (UniProt Q14749); conditions: purified enzyme, MTase-Glo SAH luminescence; measured here: GNMT inhibition; at 40 µM; stronger effect = lower value
# In short: (§1)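 Each enzyme was reacted with SAM and its substrate, with compounds tested once at 40 uM; SAH formed was read by MTase-Glo luminescence.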
# [2] = biological target: Guanidinoacetate N-methyltransferase (Homo sapiens) (UniProt Q14353); conditions: purified enzyme, MTase-Glo SAH luminescence; measured here: GAMT inhibition; at 40 µM; stronger effect = lower value
# In short: as §1
# [3] = biological target: Histamine N-methyltransferase (Homo sapiens) (UniProt P50135); conditions: purified enzyme, MTase-Glo SAH luminescence; measured here: HNMT inhibition; at 40 µM; stronger effect = lower value
# In short: as §1
# [4] = biological target: Nicotinamide N-methyltransferase (Homo sapiens) (UniProt P40261); conditions: purified enzyme, MTase-Glo SAH luminescence; measured here: NNMT inhibition; at 40 µM; stronger effect = lower value
# In short: as §1
# [5] = biological target: Phenylethanolamine N-methyltransferase (Homo sapiens) (UniProt P11086); conditions: purified enzyme, MTase-Glo SAH luminescence; measured here: PNMT inhibition; at 40 µM; stronger effect = lower value
# In short: as §1
# On the % scale 0 is the no-effect control and ±100 the full control effect.
SMILES,"activity change, negative = inhibition [1]","activity change, negative = inhibition [2]","activity change, negative = inhibition [3]","activity change, negative = inhibition [4]","activity change, negative = inhibition [5]"
O=C(Cn1nc2n(Cc3ccc(F)cc3)c(=O)c3ccccc3n2c1=O)NCc1ccc(Cl)cc1,-3.89%,-0.03%,-4.06%,-10.4%,-3.6%
C=CCSC(C)C(=O)N1CCCn2nc(C(=O)OC)cc2C1 (stereo not given),-0.072%,2.29%,3.65%,1.37%,-0.212%
C=C1[C@H]2[C@H](O[C@@H]3O[C@H](COC(=O)/C=C/c4cc(OC)c(O)c(OC)c4)[C@@H](O)[C@H](O)[C@H]3O)OC=C(C(=O)O)[C@H]2C[C@@H]1O,2.21%,3.72%,9.48%,-7.92%,5.95%
Cc1nc([C@](C)(O)CO)sc1-c1cnc(N)c(O[C@H](C)c2cc(F)ccc2-n2nccn2)c1,-1.56%,-25.6%,-4.24%,-19.7%,-11.5%
CCC(C)NC(=O)c1ccc2c(=O)n(CC(C)C)c3nn(CC(=O)c4cccc(Cl)c4)c(=O)n3c2c1 (stereo not given),-1.71%,-0.113%,1.69%,-7.24%,-4.47%
O=C(Cn1cccn1)N1C[C@@H](COCC2CC2)[C@H](c2ccccn2)C1,-0.148%,0.373%,-0.335%,-0.543%,9.55%
CC1(C(=O)NC2CCCCCCC2)Cn2c(ccc2-c2ccco2)C(=O)N1Cc1ccc(F)cc1 (stereo not given),-9.12%,0%,0.355%,-20.5%,-5.06%
C[C@@H](NS(C)(=O)=O)c1onc(-c2cccnc2)c1C(=O)O,-7.08%,-10.8%,-9.66%,-16.2%,-13.4%
CCOC(=O)c1ccc2c(c1)C1C=CCC1C(c1ccc(F)cc1)N2 (stereo not given),-10.8%,-9.82%,-14.7%,-11.8%,-10.2%
COCCN1CC(CO)C2(CCN(Cc3ccc(C#N)cc3)CC2)C1 (stereo not given),-8.04%,-5.78%,-9.44%,-12.1%,-34.5%
COc1ccc2cc3n(c2c1)CC(C)(C(=O)NCC1CCCO1)N(Cc1ccccc1OC)C3=O (stereo not given),-1.5%,5.11%,0.126%,4.54%,-0.803%
C=CCn1c(=O)c2ccc(C(=O)NC(C)CC)cc2n2c(=O)n(CC(=O)N(C)c3ccccc3)nc12 (stereo not given),2.53%,0%,5.51%,-2.1%,2.96%
Cc1ccc2c(c1)-c1nc(-c3ccc(Cl)cc3)cc(-c3coc4ccccc4c3=O)c1CO2,,-0.154%,,-14.7%,-10.8%
COC(C(=O)N1Cc2[nH]nc(NC(=O)c3ccc(N4CCN(C)CC4)cc3)c2C1)c1ccccc1 (stereo not given),1.37%,,-33.5%,,
COC(=O)c1nc(NC(=O)CC[C@H]2NC(=O)c3ccccc3NC2=O)sc1C,-9.5%,-2.58%,0.246%,-9.91%,-0.423%
CCc1ccc(CNC(=O)c2ncn3c2C(=O)N(C2CC2)C(C)(C(=O)NCc2ccc(OC)cc2)C3)cc1 (stereo not given),-7.2%,3.37%,-5.99%,-9.64%,-4.81%
COC(=O)[C@H](NC(=O)[C@@H]1C[C@@H](NC(=O)CSC)CCN1S(=O)(=O)c1ccc(OC)cc1)C(C)C,-1.93%,-8.42%,-3.81%,-15.5%,-10.2%
CC(C)CCNS(=O)(=O)c1ccc2[nH]c(=O)[nH]c2c1,15.4%,0.663%,14.4%,3.66%,1.91%
C=CCn1c(=O)c2ccc(C(=O)NCC(C)C)cc2n2c(=O)[nH]nc12,2.97%,0.587%,5.91%,8.74%,-0.919%
Cc1ccc(CNC(=O)C2(C)Cn3nc(C(=O)NCCc4cccc(C)c4)cc3C(=O)N2C)cc1 (stereo not given),2.03%,0%,3.54%,3.77%,0.78%

SMILES,"activity change, negative = inhibition [1]","activity change, negative = inhibition [2]","activity change, negative = inhibition [3]","activity change, negative = inhibition [4]","activity change, negative = inhibition [5]"
CCCCN1C(=O)c2ccc(-c3ccccc3)n2CC1(C)C(=O)NC1CCCCCC1 (stereo not given),0.956%,2.58%,-2.76%,-3.96%,-4.21%
CCn1c2c(c(=O)n1Cc1ccccc1)CCN(C(=O)c1ccc(Oc3ccccc3)cc1)C2,-8.25%,0.386%,-3.85%,-12.3%,-2.92%
CC[C@@H](O)C[C@@H]1C(C)=C[C@@H]2CCCC[C@@H]2[C@@]1(C)C(=O)O,1.46%,2.36%,7.96%,-13.8%,-6.81%
O=C(Nc1cccc(C(F)(F)F)c1)[C@@H]1CCCN1c1ccnc2ccnn12,-7.42%,-5.78%,-6.78%,-11.2%,-0.035%
CCNC(=O)c1coc(COc2ccc3c(c2)C(c2cccc(C)c2)N(C(=O)C2CC2)CC3)n1 (stereo not given),-4.86%,-1.47%,-7.64%,-13.5%,-10.8%
O=C(Cc1cccc(Cl)c1)N1CC(c2nc(Cc3ccccc3)no2)C1,-2.64%,-0.458%,0.324%,2.75%,0.045%
CCC(=O)N1CCCC(c2nc(-c3cccnn3)no2)C1 (stereo not given),-4.35%,-11.5%,-5.24%,-13.2%,-6.8%
CC1(C(=O)NC2CCCC2)Cn2c(cc3sccc32)C(=O)N1Cc1ccccc1 (stereo not given),-3.27%,3.94%,-3.14%,-11%,-1.55%
Cc1ccc(CN2CC(Oc3ccccc3C(=O)NCc3ccccc3)C2)o1,-6.48%,-5.7%,-4.64%,-15.3%,-4.4%
CCN1C(=O)c2cc(C(=O)NCc3ccc(SC)cc3)nn2CC1(C)C(=O)NC1CCCC1 (stereo not given),1.68%,2.43%,0.834%,0.534%,-0.809%
CC(=O)Nc1c2n(c3ccc(F)cc13)CC(C)(C(=O)NC1CCCC1)N(c1cccc(C)c1C)C2=O (stereo not given),5.81%,0.994%,2.09%,12.1%,0.933%
Clc1ccccc1C1(c2ccnc(NCCc3ccncc3)n2)CCNCC1,-8.64%,-11.6%,-35.1%,-30.2%,-16.3%
CC(C)(C)CC(=O)N1C[C@@H](CO)[C@@H]2Oc3ccc(Cl)cc3[C@@H]21,-8.66%,-11.4%,-3.26%,-28%,-31.3%
O=C(c1cccs1)C1CCCN(Cc2nc(CCc3ccccc3)no2)C1 (stereo not given),-2.54%,1.37%,1.88%,-1.65%,-0.739%
Cn1ccc2c(C(=O)NCCc3cnc[nH]3)nc(-c3ccc(N4CCOCC4)cc3)cc21,-29.4%,-22.6%,-58.4%,-23.6%,-26.6%
COC(=O)c1cc2n(n1)CC(C)(C(=O)NC1CCCCC1)N(Cc1cccc(OC)c1)C2=O (stereo not given),8.64%,2.58%,13%,1.21%,6.03%
CCc1nc(-c2c3n(c(=O)n(CCOc4ccc(F)cc4)c2=O)CCCC3)no1,2.16%,-4.84%,-1.49%,-5.45%,2.12%
O=C(c1ccc(CCC2COc3ccccc3O2)cc1)N1CCCCC1 (stereo not given),-7.44%,-6.96%,-8.77%,-10.1%,-11.2%
CCCCOc1ccccc1-c1cc2n(n1)CC(C)(C(=O)NC1CCCCC1)N(CCCOC)C2=O (stereo not given),-1.25%,0.156%,2.67%,1.76%,-1.24%
O=C(NC1CC1)c1ccc2nnc(C3CCCC3)n2c1,-9.56%,-14.8%,-6.48%,-20.5%,-14%

SMILES,"activity change, negative = inhibition [1]","activity change, negative = inhibition [2]","activity change, negative = inhibition [3]","activity change, negative = inhibition [4]","activity change, negative = inhibition [5]"
CC1(C)CCC(NC(=O)[C@@H](N)CCC(=O)O)CC1,3.49%,11.2%,6.14%,-2.68%,7.45%
CCN1C(=O)c2c(C(=O)NCc3ccc(Cl)cc3)ncn2CC1(C)C(=O)NC1CCCC1 (stereo not given),-7.65%,-3.18%,6.24%,-8.41%,0.884%
COc1cc(-n2cnc3cc(-c4ccc(Cl)cc4)sc3c2=O)ccc1OCCN1CCCC1,-4.08%,15.7%,-3.8%,-10.2%,3.99%
Cc1ccc(NC(=O)N2CCn3cccc3C2C)cc1 (stereo not given),3.97%,0%,3.72%,-3.76%,1.93%
O=C(O)C1CCNCC1,-1.72%,5%,-0.582%,-5.66%,5.28%
CCCCN(C)CCCN1C(=O)c2cc3occc3n2CC1(C)C(=O)NC1CCCCCC1 (stereo not given),2.78%,3.77%,-12.5%,2.81%,-0.849%
CCC(C)/C=C(C)/C=C/C1=CC2=CC(=O)C3(C)OC(C)(O)C(C(=O)OC)C3C2=CO1 (stereo not given),4.06%,4.89%,7.54%,-9.91%,-0.686%
CCOc1ccc(CN2C(=O)c3cc(-c4ccco4)nn3CC2(C)C(=O)NC2CCCCCC2)cc1 (stereo not given),-4.22%,2.84%,-3.82%,-5.32%,-10.1%
CC(Oc1cc(O)c2c(=O)cc(-c3ccccc3)oc2c1)C(=O)c1ccccc1 (stereo not given),-6.13%,2.17%,-4.93%,-7.02%,-11.4%
CN(C)CC1(O)CCC2(CCN(C(=O)CCC3CCCC3)CC2)CC1,-7.86%,-7.52%,-20.6%,-13.4%,-7.77%
CCCN1C(=O)c2cc(C(=O)NCCCN3CCN(C)CC3)nn2CC1(C)C(=O)NC1CCCC1 (stereo not given),-2.75%,-2.54%,-2.21%,-5.23%,-4.91%
Cc1cc2c(cc1S(=O)(=O)N1CCN(c3ccc(F)cc3)CC1)n(C)c(=O)n2C,-3.52%,2.27%,-3.39%,-6.84%,-7.62%
CC(C)OCCCNC(=O)C1c2c(n(C)c3ccccc23)SCC(=O)N1Cc1ccc2c(c1)OCO2 (stereo not given),3.77%,4.03%,-6.33%,-6.37%,-2.2%
COc1ccccc1CN1C(=O)c2cc3occc3n2CC1(C)C(=O)NC1CCCCC1C (stereo not given),-0.743%,0.174%,2.33%,0.324%,-0.655%
CC(C)(C)c1ccc(C(=O)NC(Cc2c[nH]c3ccccc23)C(=O)OCC(=O)c2ccc(Br)cc2)cc1 (stereo not given),-0.323%,3.68%,-4.32%,-3.56%,-5.24%
O=C(O)c1cc(O[C@@H]2O[C@H](CO)[C@@H](O)[C@H](O)[C@H]2O)ccc1O,4.17%,7.79%,10.2%,-3.12%,6.93%
Cc1ccc(C(=O)N2C[C@@H](Oc3cccnc3)C[C@H]2C(N)=O)s1,-3.43%,-3.27%,-1.6%,-6.48%,-3.19%
Cc1nc(C2CCCN(C(=O)C(C)(C)N)C2)cc(N2CCOCC2)n1 (stereo not given),-4.04%,-3.01%,-27%,-6.73%,-9.57%
COc1ccccc1CN1C(=O)c2c(-n3cccc3)c3ccccc3n2CC1(C)C(=O)NC1CCCC1 (stereo not given),3.57%,0%,-0.497%,0.234%,0.332%
CC1(C(=O)NC2CCCCC2)Cn2c(ccc2-c2ccco2)C(=O)N1CCc1ccccc1 (stereo not given),-4.13%,-0.276%,4.31%,-0.177%,-0.916%
